# In the supplement of paper PMC12217912:
# The other results are listed elsewhere or left out. The full chains were built here from the parent and the listed change. Inactive controls read about 0.05.
# B1: TEV protease; numbered along this chain (parent)
# chain: MGESLFKGPRDYNPISSSICHLTNESDGHTTSLYGIGFGPFIITNKHLFRRNNGTLVVQSLHGVFKVKDTTTLQQHLVDGRDMIIIRMPKDFPPFPQKLKFREPQREERICLVTTNFQTKSMSSMVSDTSCTFPSGDGIFWKHWIQTKDGQCGSPLVSTRDGFIVGIHSASNFTNTNNYFTSVPKNFMELLTNQEAQQWVSGWRLNADSVLWGGHKVFMVKPEEPFQPVKEATQL
# Variants of: B1
# Experiment: raw area under fraction-flipped curve 0-4 h after induction (AUC4h, not background-subtracted), DNA-recorder readout of cleavage of the substrate (dimensionless); higher = more cleavage of the substrate by the protease variant
# Conditions: temperature: 34 °C; time window: 0-4 h after rhamnose induction
# Method: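 In vivo DNA recorder in E. coli TOP10(DE3) ΔrhaA at 34 °C. Each TEVp single-site mutant (parent TEVp 0) is paired with a single-site variant of the 7-mer TEVs (canonical ENLYFQ|S). The substrate sits between flexible linkers in a Bxb1-sfGFP-TEVs-SsrA fusion, so cleavage stabilises Bxb1 and speeds flipping of a recombination array, read by NGS. The value is the raw area under the fraction-flipped curve over 0-4 h after rhamnose induction (AUC4h), with ≥20 reads per time point. It is not background-subtracted; inactive controls average about 0.047.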
# 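Note: Bxb1 expression induced with 0.2% (w/v) L-rhamnose at OD600 near 0.5, cultures sampled hourly, flipped fraction per protease–substrate barcode pair counted by paired-end Illumina sequencing.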
Variant,area with substrate ENLYFQA,area with substrate ENLYFQC,area with substrate ENLYFQD,area with substrate ENLYFQF,area with substrate ENLYFQH,area with substrate ENLYFQI,area with substrate ENLYFQK,area with substrate ENLYFQL,area with substrate ENLYFQM,area with substrate ENLYFQP,area with substrate ENLYFQR,area with substrate ENLYFQS,area with substrate ENLYFQT,area with substrate ENLYFQW,area with substrate ENLYFQG,area with substrate ENLYFQN,area with substrate ENLYFQV,area with substrate ENLYFQQ,area with substrate ENLYFQY,area with substrate ENLYFQE
N116Q,0.107,0.0983,0.0835,0.0924,0.101,0.0559,0.0728,0.0618,0.0822,0.0604,0.0581,0.105,0.0545,0.0659,,,,,,
F117H,0.0985,0.117,,,0.078,0.0628,0.0564,0.0657,0.086,,0.0573,0.107,0.0596,0.045,0.107,0.076,0.062,,,
Q118T,0.106,0.134,0.0591,,0.0699,0.0534,,0.0549,,,0.059,0.102,0.0593,,,,,0.0599,0.107,
S123A,0.0984,0.151,0.0786,,,0.0641,0.0529,0.0655,,0.0499,0.0598,0.105,0.0739,,,,0.101,0.0887,0.0806,
S123K,0.0691,0.145,,0.062,0.0828,0.0632,0.0613,,0.114,0.0602,0.0518,0.115,0.0716,0.0425,0.111,,0.0811,,0.0857,
S124W,0.0865,,,0.0867,,0.0572,0.0598,0.0758,0.118,0.0533,0.0883,0.105,0.0615,,0.0992,0.0766,0.0502,,0.0713,
M125N,0.109,0.109,0.0686,,0.0855,0.0674,0.0778,0.0572,0.0866,,0.0606,0.1,0.0998,0.0725,0.0682,0.0724,0.0835,,0.0809,
M125T,0.0993,0.11,0.0676,0.103,,0.0649,0.0667,0.0636,,0.0588,0.0588,0.103,0.0795,0.0614,0.106,0.0699,0.0542,,,0.0703
M125V,0.102,0.113,0.0702,0.102,,0.053,0.0728,0.0606,0.0913,,0.0642,0.11,0.0664,,0.0722,,0.0699,0.0952,,
V126F,0.0998,,,0.121,0.102,0.0739,0.0731,0.076,0.0965,0.0754,0.0454,0.12,,,,0.0909,0.057,,,
V126M,0.102,0.109,0.0512,0.078,0.0808,0.0458,0.0665,,0.0843,0.0607,0.0656,0.104,0.0588,0.0638,0.118,,0.0557,,0.0744,0.0724
V126W,0.115,0.146,,0.109,0.0944,0.0503,0.0433,0.0802,0.114,,0.0604,0.12,,0.0449,0.113,0.0813,0.054,0.083,0.0704,
S127P,0.0909,0.112,,0.0852,,0.0635,0.053,0.0732,,,0.0683,0.0975,0.0736,0.0849,0.0901,0.0764,0.0158,,0.0761,
T129I,0.0975,0.0751,0.0688,,,0.0337,0.062,0.0536,0.0964,,0.0587,0.0815,0.0496,0.0657,0.0796,0.0853,0.0588,0.065,0.0664,
T129W,0.0864,0.0971,,0.0792,0.0547,0.0468,0.0671,0.0659,0.0932,0.0507,0.06,0.0912,0.0602,0.0645,0.0703,0.0615,0.0668,,0.0718,
T132V,0.0841,0.106,0.062,0.0701,,0.0629,0.0678,0.0602,0.0975,,0.0717,0.0988,0.0616,0.0628,0.089,0.0673,0.0516,0.0711,0.0823,
F133E,0.134,0.106,0.0917,,,0.0582,0.0623,0.0874,0.124,,0.0532,0.108,0.066,0.0652,0.0884,0.0757,,,0.0902,
F133N,0.0951,,0.0638,0.123,0.0582,0.0621,0.0757,,0.0824,,0.0747,0.104,0.0664,,0.0758,0.07,,0.0742,,
D137L,0.0924,0.11,,,0.0799,,0.0716,,0.0622,0.0286,0.0634,0.0952,0.0691,,0.0898,0.0692,,,,
D137N,0.101,0.1,,0.0775,0.0769,0.0566,0.0616,0.062,0.076,0.0642,0.0581,0.0958,0.0674,0.0649,0.0979,0.0765,0.0513,,0.0854,
D137R,0.0827,0.0928,,,0.0696,0.0558,0.0581,0.0616,0.0688,0.0487,0.0701,0.0769,,0.0631,0.0779,0.0785,0.0511,0.0615,,
I139A,0.125,,,0.0562,0.0479,0.0627,0.0659,0.0584,0.143,,0.0594,0.122,0.0612,,,,,,0.108,0.0662
I139G,0.111,0.124,0.0757,0.0707,0.0842,0.0527,,0.0463,0.0675,0.0459,0.0572,0.11,0.0627,0.0599,0.104,0.0791,0.0585,,0.0556,
I139S,0.0988,0.161,,0.0987,0.0696,,0.0692,0.0694,,,0.0649,0.126,0.0765,0.0573,0.135,0.0985,,0.117,0.0602,
